Whole data set: some 33,000 sequences, median “E-score (-0.5 to 0.5)” near -0.04, cut for the highest 2% near 0.36. The list shows a part of the results.
The sequences below were run against T1, Hmlalpha2 (UniProt P0CY09) (assay: PBM E-score (8-mer binding enrichment) (E-score (-0.5 to 0.5)); higher = stronger / more preferred TF binding; most listed sequences are background and not binding sites). Conditions: protein concentration: 200 nM; construct: GST-full length.
T1 sequence: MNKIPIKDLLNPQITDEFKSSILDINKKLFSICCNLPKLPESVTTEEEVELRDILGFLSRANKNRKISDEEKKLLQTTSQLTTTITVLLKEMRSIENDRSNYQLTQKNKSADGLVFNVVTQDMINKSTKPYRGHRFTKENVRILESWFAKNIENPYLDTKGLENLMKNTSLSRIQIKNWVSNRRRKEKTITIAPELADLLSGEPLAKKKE
Method in brief: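 Yeast transcription factors carrying a GST tag, as full-length proteins or DNA-binding domains, were produced by PURExpress in vitro transcription/translation. About 100-200 nM protein was applied to universal all-10-mer Agilent arrays, double-stranded by primer extension on fresh or once-stripped slides. Bound protein was detected with fluorescent anti-GST, and scans were normalised with masliner. The Universal PBM Analysis Suite gave each ungapped eight-base word, pooled with its reverse complement, an E-score, a modified Wilcoxon-Mann-Whitney statistic.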
GAGGAGCC was tested, and the “PBM E-score” value was -0.271.
In the case of AAAGATGT, the “PBM E-score” value is reported as 0.187.
In the case of CCTAGCCC, the “PBM E-score” value is reported as -0.34.
With CGTTGATC the “PBM E-score” value was 0.189.
With CACAGGCA the “PBM E-score” value was -0.0087.
For ACTGTGGC, the “PBM E-score” value was -0.294.
For ACGCGTGA, the “PBM E-score” value was 0.285.
With CATTCACC the “PBM E-score” value was -0.0426.
In the case of CGTGCGTC, the “PBM E-score” value is reported as 0.127.
For GGCAGTCA, the “PBM E-score” value was -0.191.
For CAAGGCTG, the “PBM E-score” value was -0.109.
In the case of CCTAAAAG, the “PBM E-score” value is reported as -0.129.
For CAGGAAAG, the “PBM E-score” value was -0.269.
In the case of CGGCCGGC, the “PBM E-score” value is reported as -0.25.
GGTAACTA was tested, and the “PBM E-score” value was 0.201.
In the case of AACGTACA, the “PBM E-score” value is reported as 0.285.
CGCCTTAG was tested, and the “PBM E-score” value was -0.285.
For CTCCACTC, the “PBM E-score” value was -0.275.
With CACAGGGA the “PBM E-score” value was -0.0907.
CGTTCGGA was tested, and the “PBM E-score” value was -0.228.
With CAGAAACC the “PBM E-score” value was -0.12.
With AACGCCCA the “PBM E-score” value was 0.0874.
For AACGGCTC, the “PBM E-score” value was -0.151.
In the case of AGCTGTCA, the “PBM E-score” value is reported as -0.0794.
With CAACGTGC the “PBM E-score” value was 0.195.
In the case of AGCACCAT, the “PBM E-score” value is reported as -0.242.
For CTCCGTCC, the “PBM E-score” value was -0.304.
ATATAGCG was tested, and the “PBM E-score” value was -0.125.
In the case of AGGTAAAC, the “PBM E-score” value is reported as 0.26.
With AGCTCTAT the “PBM E-score” value was -0.102.
CGTGCAAG was tested, and the “PBM E-score” value was 0.0107.
With GAATCCAC the “PBM E-score” value was -0.00964.
In the case of CATATCCG, the “PBM E-score” value is reported as -0.149.
In the case of GCGGCTCC, the “PBM E-score” value is reported as -0.264.
With AGCACCCG the “PBM E-score” value was -0.24.
CCGTGGCA was tested, and the “PBM E-score” value was -0.00985.
With ACGAATAT the “PBM E-score” value was 0.053.
In the case of CGCTTAGC, the “PBM E-score” value is reported as -0.178.
With GACAGCGA the “PBM E-score” value was -0.238.
In the case of CTTAATTC, the “PBM E-score” value is reported as 0.00494.
GGATCACC was tested, and the “PBM E-score” value was -0.146.
For GTACGACA, the “PBM E-score” value was 0.196.
With ATCACCCA the “PBM E-score” value was -0.222.
With GGTTATTA the “PBM E-score” value was 0.137.
With ACCTATTG the “PBM E-score” value was -0.0961.
In the case of GGAATCCC, the “PBM E-score” value is reported as -0.235.
ACGCATTC was tested, and the “PBM E-score” value was 0.156.
CACAGATA was tested, and the “PBM E-score” value was -0.0274.
With GGGGCTTA the “PBM E-score” value was -0.354.
For AGGGACAC, the “PBM E-score” value was -0.0221.
With CAGTCTGC the “PBM E-score” value was -0.155.
In the case of ACTTTAGA, the “PBM E-score” value is reported as -0.0293.
AGCGACGC was tested, and the “PBM E-score” value was -0.0871.
With ACGATAGC the “PBM E-score” value was 0.0826.
AAACACCG was tested, and the “PBM E-score” value was 0.196.
For ACTTCACG, the “PBM E-score” value was 0.0332.
In the case of ATGACCAC, the “PBM E-score” value is reported as 0.0275.
With GTGCGGAA the “PBM E-score” value was -0.0753.
In the case of GATTCAAC, the “PBM E-score” value is reported as 0.0589.
With GGACCATA the “PBM E-score” value was -0.143.
For AAAAGCAT, the “PBM E-score” value was 0.0453.
In the case of AATTCCGC, the “PBM E-score” value is reported as -0.0526.
ATCGAGGG was tested, and the “PBM E-score” value was -0.255.
With ACTACTGG the “PBM E-score” value was -0.16.
In the case of CTGTCAGC, the “PBM E-score” value is reported as -0.29.
In the case of CGCAACCC, the “PBM E-score” value is reported as -0.00276.
For CTTAAACA, the “PBM E-score” value was 0.128.
In the case of CTAGGGGC, the “PBM E-score” value is reported as -0.348.
For GCCAGTAC, the “PBM E-score” value was -0.0253.
For CTAGACTA, the “PBM E-score” value was -0.212.
In the case of GACTGGAC, the “PBM E-score” value is reported as -0.23.
With ATGCCGCG the “PBM E-score” value was -0.118.
For CTTTAGTC, the “PBM E-score” value was -0.284.
With GAGGTAGA the “PBM E-score” value was -0.0117.
With CGAATGCC the “PBM E-score” value was -0.185.
CCTCATCG was tested, and the “PBM E-score” value was -0.115.
In the case of AATGCACA, the “PBM E-score” value is reported as 0.16.
In the case of CATCGGAA, the “PBM E-score” value is reported as 0.052.
For AGCTAATA, the “PBM E-score” value was 0.222.
ATCAGGCG was tested, and the “PBM E-score” value was -0.0583.
In the case of AACCCTTG, the “PBM E-score” value is reported as -0.0377.
In the case of ATAACCGC, the “PBM E-score” value is reported as 0.0357.
For CGTTTAGC, the “PBM E-score” value was 0.119.
With ATTAGCGG the “PBM E-score” value was -0.285.
For AAATTGAG, the “PBM E-score” value was -0.0963.
With ACAGGTCT the “PBM E-score” value was -0.11.
For CATAAACA, the “PBM E-score” value was 0.384.
For GTGGAAAC, the “PBM E-score” value was -0.0744.
For CTAGGTTA, the “PBM E-score” value was 0.0901.
In the case of GAGTACAC, the “PBM E-score” value is reported as 0.276.
For AAGTGGTG, the “PBM E-score” value was -0.117.
With CAGCCAAA the “PBM E-score” value was -0.0144.
In the case of CGCTTTCC, the “PBM E-score” value is reported as -0.146.
AACCTGCG was tested, and the “PBM E-score” value was -0.0431.
With TAACGGCA the “PBM E-score” value was -0.0141.
ACTCATGC was tested, and the “PBM E-score” value was -0.132.
For ACTCTTAA, the “PBM E-score” value was -0.0136.
In the case of ACACTCAC, the “PBM E-score” value is reported as 0.108.
In the case of CCGAGTCG, the “PBM E-score” value is reported as -0.216.
In the case of ATAGACTA, the “PBM E-score” value is reported as 0.126.
With CCCACTAC the “PBM E-score” value was 0.14.
With AAGCAAGT the “PBM E-score” value was 0.0946.
For CATCTACA, the “PBM E-score” value was 0.338.
In the case of ATCCAAGC, the “PBM E-score” value is reported as -0.203.
In the case of GACTGGCC, the “PBM E-score” value is reported as -0.327.
CCACGTGC was tested, and the “PBM E-score” value was -0.0212.
AAGACTAC was tested, and the “PBM E-score” value was 0.0786.
With GCATCAAA the “PBM E-score” value was 0.0226.
In the case of AGACGCAC, the “PBM E-score” value is reported as -0.0382.
For AGATCCTA, the “PBM E-score” value was -0.165.
In the case of GGCGGCTA, the “PBM E-score” value is reported as -0.119.
With CCTCGCCA the “PBM E-score” value was -0.335.
In the case of TTCGAGAA, the “PBM E-score” value is reported as 0.0374.
For CACCTTGA, the “PBM E-score” value was -0.0745.
For ACCCACGC, the “PBM E-score” value was -0.0679.
With CCACGTGG the “PBM E-score” value was -0.225.
With GGGTCATA the “PBM E-score” value was -0.0564.
AACACGGG was tested, and the “PBM E-score” value was 0.387.
CCGTAAGC was tested, and the “PBM E-score” value was -0.127.
ACAAATCC was tested, and the “PBM E-score” value was -0.129.
For GTGGTCGA, the “PBM E-score” value was -0.156.
With GAGGACTC the “PBM E-score” value was -0.258.
In the case of CCGTTTGC, the “PBM E-score” value is reported as -0.235.
With AACTCCTA the “PBM E-score” value was -0.146.
In the case of AGATATTG, the “PBM E-score” value is reported as -0.137.
In the case of TATAAGCA, the “PBM E-score” value is reported as -0.028.
For GTACCTGA, the “PBM E-score” value was 0.101.
AAGCACTG was tested, and the “PBM E-score” value was -0.0328.
For CAAGGCAC, the “PBM E-score” value was -0.149.
In the case of GTAGTTCA, the “PBM E-score” value is reported as 0.109.
With CCCCGGGC the “PBM E-score” value was -0.306.
CTGTGGAC was tested, and the “PBM E-score” value was -0.199.
With ATGGAGCC the “PBM E-score” value was -0.208.
For TAATGTGA, the “PBM E-score” value was 0.19.
For AGAAGTTG, the “PBM E-score” value was -0.192.
With AGTGGGGG the “PBM E-score” value was -0.391.
In the case of AATATGCT, the “PBM E-score” value is reported as 0.0361.
For CGGCCATC, the “PBM E-score” value was -0.289.
With ACGAATCA the “PBM E-score” value was 0.172.
CAATCCTC was tested, and the “PBM E-score” value was -0.132.
For TGACGCAA, the “PBM E-score” value was 0.06.
In the case of AACTGCAT, the “PBM E-score” value is reported as 0.208.
In the case of CACCGGCG, the “PBM E-score” value is reported as -0.12.
With AACCTGAT the “PBM E-score” value was 0.0152.
In the case of AATACTGT, the “PBM E-score” value is reported as 0.135.
For AATATAAG, the “PBM E-score” value was 0.166.
In the case of CCAGCTTA, the “PBM E-score” value is reported as 0.0756.
With GGCAGAGA the “PBM E-score” value was -0.19.
For GGATCGAC, the “PBM E-score” value was -0.16.
ACCGTACG was tested, and the “PBM E-score” value was -0.038.
With ATTTGAAA the “PBM E-score” value was 0.106.
ACAACCCT was tested, and the “PBM E-score” value was 0.124.
For ACATCAAA, the “PBM E-score” value was 0.0633.
CCAAAGGA was tested, and the “PBM E-score” value was -0.0297.
For AGAGATGC, the “PBM E-score” value was -0.13.
In the case of ATGTCCAG, the “PBM E-score” value is reported as -0.112.
With ATCCGGAT the “PBM E-score” value was -0.189.
In the case of ATCCGGTA, the “PBM E-score” value is reported as -0.0689.
AGAATTTC was tested, and the “PBM E-score” value was -0.125.
ATGTACAG was tested, and the “PBM E-score” value was 0.289.
GCTTATCC was tested, and the “PBM E-score” value was -0.079.
In the case of CAATTCGA, the “PBM E-score” value is reported as -0.0422.
With CGACGTAG the “PBM E-score” value was -0.0597.
In the case of CCAGGTAG, the “PBM E-score” value is reported as -0.145.
With CAGTCCAC the “PBM E-score” value was -0.121.
With ATCAGGAT the “PBM E-score” value was -0.146.
For CTTCAAAG, the “PBM E-score” value was 0.0797.
With ACCCTAGA the “PBM E-score” value was 0.0131.
In the case of CAGTTTTA, the “PBM E-score” value is reported as 0.0938.
With ACTAAAGA the “PBM E-score” value was -0.0824.
For AGTTACCC, the “PBM E-score” value was 0.0542.
For GCCAATGA, the “PBM E-score” value was -0.222.

From the supplement of paper PMC3334620
